{
  "source": "patent US20250064779A1",
  "about": "“COMPOSITIONS AND METHODS FOR THE TREATMENT OF DEPRESSION” (Janssen Pharmaceuticals, Inc., priority 2022, published 2025)",
  "assay_type_in_all_cases": "in vivo, human",
  "key": {"[1]": {"tested_on": "subjects with MDD who have had an inadequate response to SSRI/SNRI treatment", "experiment": "SMDDS total score, Example 1", "settings": "Treatment Week 6; aticaprant 10 mg; 59 subjects analyzed", "source_text": "SMDDS is a subjective rating of the patient. The SMDDS is a 16-item PRO measure. Each item is rated by the subject according to a 5-point Likert scale. Subjects respond to each question using a rating scale between 0 (“Not at all” or “Never”) to 4 (“Extremely” or “Always”). The total score ranges from 0 to 60. The SMDDS uses a 7-day recall period and verbal rating scales. Higher score indicates more severe depressive symptomatology.\n• (i) Depression: Montgomery-Åsberg Depression Rating Scale (MADRS), Clinical Global Impression-Severity (CGI-S), Symptoms of Major Depressive Disorder Scale (SMDDS), and Self-assessment of treatment experience (SATE) • (ii) Anhedonia: Snaith-Hamilton Pleasure Scale (SHAPS) • (iii) Anxiety: Structured Interview Guide for the Hamilton Anxiety scale (SIGH-A) and HAM-A6 • (iv) Effects on Cognition: The Cognitive and Physical Functioning Questionnaire (CPFQ) • (v) Safety Assessments: Standard safety assessments including physical and neurological examination, vital signs, 12-lead ECG, clinical chemistry, hematology, and urinalysis was performed. […]"}, "[2]": {"tested_on": "subjects with MDD who have had an inadequate response to SSRI/SNRI treatment", "experiment": "SATE (self-assessment of treatment experience), Example 1", "settings": "Treatment Week 6, aticaprant 10 mg", "source_text": "SATE is a one to three questionnaire administered when the subject is unable to complete other evaluations, i.e., away from the clinical setting such as at home. SATE is useful to evaluate improvement or deterioration of depressive symptoms of the subjects over a short period of time. […] See, Table C.\n• (i) Depression: Montgomery-Åsberg Depression Rating Scale (MADRS), Clinical Global Impression-Severity (CGI-S), Symptoms of Major Depressive Disorder Scale (SMDDS), and Self-assessment of treatment experience (SATE) • (ii) Anhedonia: Snaith-Hamilton Pleasure Scale (SHAPS) • (iii) Anxiety: Structured Interview Guide for the Hamilton Anxiety scale (SIGH-A) and HAM-A6 • (iv) Effects on Cognition: The Cognitive and Physical Functioning Questionnaire (CPFQ) • (v) Safety Assessments: Standard safety assessments including physical and neurological examination, vital signs, 12-lead ECG, clinical chemistry, hematology, and urinalysis was performed. Based on observations of GI complaints in previous studies, a panel including PGI, PGII, G17 and Hp IgG was added to the clinical laboratory test panel to test for stomach mucosa status. • (vi) Suicidal ideation: C-SSRS • (vii) Exploratory: CPFQ • (viii) Central sedating effects: Karolinska Sleepiness Scale • (ix) Sexual dysfunction: ASEX"}, "[3]": {"tested_on": "subjects with MDD who have had an inadequate response to SSRI/SNRI treatment", "experiment": "Biomarker signature (3MM, DYN, 4MM) analysis of MADRS treatment effect, aticaprant (Example 4)"}, "[4]": {"tested_on": "subjects with MDD who have had an inadequate response to SSRI/SNRI treatment", "experiment": "SIGH-A score (anxiety), Example 1", "settings": "Treatment Week 6; aticaprant 10 mg; 59 subjects analyzed", "source_text": "The secondary objectives are: • i. To evaluate the efficacy of aticaprant compared to placebo when administered as adjunctive treatment in subjects with MDD partially responsive to SSRI/SNRI treatment in terms of reduction of symptoms of depression, as assessed by the change from baseline on the MADRS in both responders and non-responders during the placebo lead-in period. • ii. To investigate the overall safety and tolerability of treatment with adjunctive aticaprant in subjects with MDD when used in combination with a SSRI or SNRI. • iii. To investigate the effect of aticaprant versus placebo on depression related anhedonia as assessed by the SHAPS. • iv. To investigate the effect of aticaprant on symptoms of depression using the Clinical Global Impression-Severity (CGI-S), the patient reported Symptoms of Major Depressive Disorder Scale (SMDDS) and the self-assessment of treatment experience (SATE). • v. To investigate the effect of aticaprant on symptoms of anxiety using the HAM-A and on core symptoms of anxiety using the HAM-A6 subscale. • vi. To assess the plasma PK of aticaprant in subjects with MDD and explore its relationship with efficacy and safety parameters. […]"}, "[5]": {"settings": "DYN >δ1 or (DYN >δ2 and 3MM), 38-63% of patients"}},
  "note": "Values joined by “and” are separate entries in the source; they are usually repeats but may differ in a detail not shown here. Identical values can stand only once.",
  "data": [
    {"smiles": "Cc1cc(C)cc(C2CCCN2Cc2ccc(Oc3ccc(C(N)=O)cc3F)cc2)c1", "note": "(stereo not drawn) [aticaprant, 3-fluoro-4-4-2-(3,5-dimethylphenyl)pyrrolidin-1-yl-methylphenoxybenzamide]", "values": [
      {"measurement": "Change from Treatment Baseline in SMDDS Total Score, Arithmetic Mean (SD)", "setting": "[1]", "value": "−8.03 ± 9.957", "unit": "Scores on a scale"},
      {"measurement": "SATE: Depression Worsened (Much worse)", "setting": "[2]; n = 0", "value": 0, "unit": "subjects"},
      {"measurement": "SATE: Depression Worsened (Slightly worse)", "setting": "[2]; n = 0", "value": 0, "unit": "subjects"},
      {"measurement": "SATE: Depression Worsened (Very much worse)", "setting": "[2]; n = 0", "value": 0, "unit": "subjects"},
      {"measurement": "SATE: Depression Much improved", "setting": "[2]; n = 21", "value": 6, "unit": "subjects"},
      {"measurement": "SATE: Depression Slightly improved", "setting": "[2]; n = 21", "value": 15, "unit": "subjects"},
      {"measurement": "SATE: Depression Very Much Improved", "setting": "[2]; n = 21", "value": 0, "unit": "subjects"},
      {"measurement": "SATE: Overall Depression (Got worse)", "setting": "[2]; n = 30", "value": 0, "unit": "subjects"},
      {"measurement": "SATE: Overall Depression (Improved)", "setting": "[2]; n = 30", "value": 21, "unit": "subjects"},
      {"measurement": "SATE: Overall Depression (Not changed)", "setting": "[2]; n = 30", "value": 9, "unit": "subjects"},
      {"measurement": "Treatment effect in 3MM biomarker signature negative group", "setting": "[3]; 3MM negative, end of double-blind", "value": 1.59, "unit": "MADRS points"},
      {"measurement": "effect size of treatment effect in 3MM signature positive group", "setting": "[3]; 3MM positive, one sided p=0.07", "value": 0.75},
      {"measurement": "Treatment effect in 3MM biomarker signature positive group (placebo − treatment mean MADRS change)", "setting": "[3]; 3MM: CRP >3 mg/L and (TNFα>4 pg/mL or sIL6R>25 ng/mL), 21% of MDD, end of double-blind", "value": "6.3 MADRS points and 6.29 MADRS points"},
      {"measurement": "Signature advantage (TE SigPos − TE SigNeg), 3MM", "setting": "[3]; 3MM, end of double-blind", "value": 4.7, "unit": "MADRS points"},
      {"measurement": "MADRS points difference at end DB relative to placebo, 4MM signature positive patients", "setting": "[3]; 4MM positive, 63% of MDD", "value": 4.6, "unit": "MADRS points"},
      {"measurement": "improvement of 4MM signature positive compared to signature negative counterpart", "setting": "[3]; 4MM, 63% of MDD", "value": 6, "unit": "points"},
      {"measurement": "Signature advantage, 4MM signatures", "setting": "[3]; [5]", "value": "> 5", "unit": "point"},
      {"measurement": "Treatment effect, 4MM signatures", "setting": "[3]; [5]", "value": "≥ 4.5", "unit": "MADRS points"},
      {"measurement": "response in patients both 3MM positive and high dynorphin", "setting": "[3]; DYN >δ pg/mL and 3MM, FIG. 28B δ=11.5", "value": "marked improvement"},
      {"measurement": "Signature advantage, high DYN or 3MM signature", "setting": "[3]; DYN >δ pg/mL or 3MM, in more than 60% of patients", "value": "3-8 point"},
      {"measurement": "Change from Treatment Baseline in SIGH-A Score, Arithmetic Mean (SD)", "setting": "[4]", "value": "−5.85 ± 5.369", "unit": "scores on a scale"}
    ]}
  ]
}
